Data on 4 molecules can be found in patent US12145987B2, “Method for depleting cytotoxic T cells using an anti-LAG-3 antibody composition” (Daiichi Sankyo Company, Limited, priority 2017, dated 2024).

In assay [1] the test system is 293T-lacZ cells expressing human LAG-3. As to the kind of experiment: In vitro ADCC assay, human PBMC effector cells, β-galactosidase release. In kind it is cell-based. As to conditions: target 293T-lacZ/hLAG-3 cells, effector human PBMCs, percentage of cells lysed. On the procedure: 293FT cells (Invitrogen Corp.) were transfected with pLenti6/V5-GW/lacZ, and ViraPower™ Packaging Mix (Invitrogen Corp.) according to the accompanying protocols to prepare a recombinant lentivirus to express the β-galactosidase gene. 293T cells were infected by the obtained recombinant lentivirus according to the protocol of ViraPower Lentiviral Expression Systems (Invitrogen Corp). Virus-infected cells were selected using 10 μg/mL blasticidin (Invitrogen Corp.) to obtain a line stably expressing β-galactosidase. An expression plasmid of the full-length human LAG-3 was introduced into the 293T cells stably expressing β-galactosidase (hereinafter, referred to as 293T-lacZ) using Lipofectamine 2000 (manufactured by Invitrogen Corp.), and the cells were cultured for 1 day and then dissociated and recovered using TrypLExpress (manufactured by Invitrogen Corp). The cells were washed twice with phenol red-free RPMI1640 containing 5% FBS (hereinafter, referred to as a “medium for ADCC”). The number of live cells was counted by the trypan blue dye exclusion test. The cells were resuspended to 1×10^5 cells/ml in a medium for ADCC and used as target cells.
PBMCs were separated from human peripheral blood by Ficoll centrifugation, and a suspension adjusted to a live cell density of 1.2×10^6 cells/mL in a medium for ADCC was used as effector cells.
The ADCC activity of the purified rat anti-human LAG-3 antibodies rLA204, rLA212, rLA225, rLA869, and rLA1264 was investigated by the following method. To a 96-well U-bottom microplate containing 50 μL/well of the antibody solution, was added 50 μL/well of the target cells (which will be hereinafter referred to as 293T-lacZ/hLAG-3 cells) of Example 1)-5-1, followed by standing at 4° C. for 30 minutes. Then, 75 μL/well of effector cells prepared as in Example 1)-5-2 (which was however suspended to 2×10^6 cells/mL) was added thereto, followed by centrifugation at room temperature at 1200 rpm for 5 minutes, and thereafter the cells were cultured overnight under conditions of 37° C. and 5% CO2. On the next day, 50 μl of the supernatant was recovered into a black plate (manufactured by Corning Inc). A solution of β-Glo assay system (manufactured by Promega Corp.) was added thereto at 50 μl/well. The luminescence intensity was measured using a plate reader (ENVISION; manufactured by PerkinElmer, Inc). The percentage of cells lysed by ADCC activity was calculated according to the following formula. Percentage of cells lysed (%)=(A−B)/(C−B)×100 • A: Count of each sample well • B: Average of spontaneous release (wells without antibody added) counts (n=3)
When adding the antibody, 50 μL of a medium for ADCC was added thereto. Except for that, the same operation as in the sample well was performed.
C: Average of maximum release (wells containing target cells lysed with a surfactant) counts (n=3)
When adding the antibody and adding the effector cells, 50 μL and 75 μL of a medium for ADCC were added thereto respectively. For the assay, 175 μl of the β-Glo assay system solution was added to each well containing the target cells and mixed therewith. A 100 μl aliquot thereof was added to a black plate to carry out the assay.
The ADCC activity of the humanized anti-human LAG-3 antibodies (hLA212) was investigated by the method described in Example 2)-2.
The in vitro ADCC activity of the humanized anti-human LAG-3 antibody hLA212_H4/L2 was evaluated by the method described in Example 7)-2.

Assay [2] addresses T1, human LAG-3 expressed on 293T-lacZ cells (Homo sapiens, UniProt P18627).
T1 construct: An expression plasmid of the full-length human LAG-3 was introduced into the 293T cells stably expressing β-galactosidase; expressed in transfected cells; host or cells: 293T-lacZ cells (293T stably expressing β-galactosidase), transient transfection
T1 sequence (P18627 23-525): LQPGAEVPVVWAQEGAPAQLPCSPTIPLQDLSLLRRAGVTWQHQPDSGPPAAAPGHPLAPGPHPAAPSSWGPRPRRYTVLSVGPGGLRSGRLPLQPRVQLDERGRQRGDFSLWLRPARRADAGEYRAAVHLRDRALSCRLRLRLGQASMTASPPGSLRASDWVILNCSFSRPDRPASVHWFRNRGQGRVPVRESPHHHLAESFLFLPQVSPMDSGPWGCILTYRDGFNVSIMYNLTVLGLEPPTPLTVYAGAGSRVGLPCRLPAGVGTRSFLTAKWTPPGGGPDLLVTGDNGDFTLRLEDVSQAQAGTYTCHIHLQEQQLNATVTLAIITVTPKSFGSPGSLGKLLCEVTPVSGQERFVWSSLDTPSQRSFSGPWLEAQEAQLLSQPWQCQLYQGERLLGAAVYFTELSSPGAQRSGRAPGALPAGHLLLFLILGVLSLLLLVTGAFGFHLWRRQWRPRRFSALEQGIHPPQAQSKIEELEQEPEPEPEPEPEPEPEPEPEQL
As to the kind of experiment: Binding activity to 293T-lacZ cells expressing human LAG-3 by flow cytometry. As to conditions: mean fluorescence intensity. Here is the method: The expression plasmid pcDNA3.1-hLAG-3 of human LAG-3 was introduced into the 293T-lacZ cells (described in Example 1)-5-1), using Lipofectamine 2000 (manufactured by Invitrogen Corp.), and the cells were cultured for 1 day and thereafter used for flow cytometry. The flow cytometry was performed according to the method described in Example 1)-4, except that an Anti-Human IgG PE conjugate (manufactured by Jackson ImmunoResearch Laboratories, Inc.) diluted 200-fold with a FACS buffer was used as the secondary antibody.
The human LAG-3-expression plasmid pcDNA3.1/hLAG-3 was introduced into the 293T-lacZ cells (described in Example 1)-5-1), using Lipofectamine 2000 (manufactured by Invitrogen Corp.), and the cells were cultured for 1 day and thereafter used for flow cytometry. The flow cytometry was performed according to the method described in Example 1)-4, but an Anti-Human IgG PE conjugate (manufactured by Jackson ImmunoResearch Laboratories, Inc.) diluted 200-fold with a FACS buffer was used as the secondary antibody.
The binding of the humanized anti-human LAG-3 antibody hLA212_H4/L2 to human LAG-3-expressing 293T-lacZ cells was investigated by flow cytometry according to the method described in Example 7)-2.
For orientation: In flow cytometry, cells or beads pass a laser one at a time.

B1: hLA212_H3/L5: humanized antibody; heavy chain positions 20 to 470 of SEQ ID No: 30, light chain positions 21 to 234 of SEQ ID No: 40 (antibody)
heavy: EVQLVESGGGLVQPGGSLRLSCAASGFTYRSYVMAWVRQAPGKGLEWVASISTGGGNTYYRDSVKGRFTISRDNAKNTLYLQMDSLRAEDTAVYYCAEDMSNSGYGLFDYWGQGTLVTVSSASTKGPSVFPLAPSSKSTSGGTAALGCLVKDYFPEPVTVSWNSGALTSGVHTFPAVLQSSGLYSLSSVVTVPSSSLGTQTYICNVNHKPSNTKVDKRV[left out - human IgG1 Fc]
light: NIQMTQSPSSMSISVGDRVTMTCKAGQNVDNNIAWYQKKPGQSPKLLIYYASNRNTGVPDRFSGGGYGTDFTLTISSVQPEDAAFYYCQRISNSPYTFGQGTKLELKRTVAAPSVFIFPPSDEQLKSGTASVVCLLNNFYPREAKVQWKVDNALQSGNSQESVTEQDSKDSTYSLSSTLTLSKADYEKHKVYACEVTHQGLSSPVTKSFNRGEC
For B1, the “ADCC activity on cells expressing human LAG-3” value (from here on “ADCC activity”) in assay [1] is recorded as “concentration-dependent ADCC activity against the 293T-lacZ cells expressing human LAG-3, almost comparable to the human chimeric anti-LAG-3 antibody cLA212”. The “binding activity to 293T-lacZ cells expressing human LAG-3” value (“binding activity” for short) in assay [2] is on record as “concentration-dependent binding activity to the 293T-lacZ cells expressing human LAG-3, comparable to the human chimeric anti-LAG-3 antibody cLA212”.

B2: hLA212_H2/L3: humanized antibody; heavy chain positions 20 to 470 of SEQ ID No: 28, light chain positions 21 to 234 of SEQ ID No: 36 (antibody)
heavy: EVQLVESGGGLVQPGGSLRLSCAASGFTYRSYVMAWVRQAPGKGLEWVGSISTGGGNTYYRDSVKGRFTISRDNAKNTLYLQMNSLRAEDTAVYYCAEDMSNSGYGLFDYWGQGTLVTVSSASTKGPSVFPLAPSSKSTSGGTAALGCLVKDYFPEPVTVSWNSGALTSGVHTFPAVLQSSGLYSLSSVVTVPSSSLGTQTYICNVNHKPSNTKVDKRV[left out - human IgG1 Fc]
light: NIQMTQSPSSLSASVGDRVTITCKAGQNVDNNIAWYQKKPGQSPKLLIYYASNRNTGVPDRFSGGGYGTDFTLTISSLQPEDFAFYYCQRISNSPYTFGQGTKVEIKRTVAAPSVFIFPPSDEQLKSGTASVVCLLNNFYPREAKVQWKVDNALQSGNSQESVTEQDSKDSTYSLSSTLTLSKADYEKHKVYACEVTHQGLSSPVTKSFNRGEC
In the case of B2, the “ADCC activity” value in assay [1] was “concentration-dependent ADCC activity against the 293T-lacZ cells expressing human LAG-3, almost comparable to the human chimeric anti-LAG-3 antibody cLA212”. In addition, the “binding activity” value in assay [2] was “concentration-dependent binding activity to the 293T-lacZ cells expressing human LAG-3, comparable to the human chimeric anti-LAG-3 antibody cLA212”.

B3: hLA212_H2/L2: humanized antibody; heavy chain positions 20 to 470 of SEQ ID No: 28, light chain positions 21 to 234 of SEQ ID No: 34 (antibody)
heavy: EVQLVESGGGLVQPGGSLRLSCAASGFTYRSYVMAWVRQAPGKGLEWVGSISTGGGNTYYRDSVKGRFTISRDNAKNTLYLQMNSLRAEDTAVYYCAEDMSNSGYGLFDYWGQGTLVTVSSASTKGPSVFPLAPSSKSTSGGTAALGCLVKDYFPEPVTVSWNSGALTSGVHTFPAVLQSSGLYSLSSVVTVPSSSLGTQTYICNVNHKPSNTKVDKRV[left out - human IgG1 Fc]
light: DIQMTQSPSSLSASVGDRVTITCKAGQNVDNNIAWYQQKPGQSPKLLIYYASNRNTGVPSRFSGSGYGTDFTLTISSLQPEDFATYYCQRISNSPYTFGQGTKVEIKRTVAAPSVFIFPPSDEQLKSGTASVVCLLNNFYPREAKVQWKVDNALQSGNSQESVTEQDSKDSTYSLSSTLTLSKADYEKHKVYACEVTHQGLSSPVTKSFNRGEC
B3: the “ADCC activity” value in assay [1] was “concentration-dependent ADCC activity against the 293T-lacZ cells expressing human LAG-3, almost comparable to the human chimeric anti-LAG-3 antibody cLA212”. Moreover, the “binding activity” value in assay [2] is listed as “concentration-dependent binding activity to the 293T-lacZ cells expressing human LAG-3, comparable to the human chimeric anti-LAG-3 antibody cLA212”.

B4: hLA212_H2/L1: humanized antibody; heavy chain positions 20 to 470 of SEQ ID No: 28, light chain positions 21 to 234 of SEQ ID No: 32 (antibody)
heavy: EVQLVESGGGLVQPGGSLRLSCAASGFTYRSYVMAWVRQAPGKGLEWVGSISTGGGNTYYRDSVKGRFTISRDNAKNTLYLQMNSLRAEDTAVYYCAEDMSNSGYGLFDYWGQGTLVTVSSASTKGPSVFPLAPSSKSTSGGTAALGCLVKDYFPEPVTVSWNSGALTSGVHTFPAVLQSSGLYSLSSVVTVPSSSLGTQTYICNVNHKPSNTKVDKRV[left out - human IgG1 Fc]
light: DIQMTQSPSSLSASVGDRVTITCKAGQNVDNNIAWYQQKPGQAPKLLIYYASNRNTGVPSRFSGSGSGTDFTLTISSLQPEDFATYYCQRISNSPYTFGQGTKVEIKRTVAAPSVFIFPPSDEQLKSGTASVVCLLNNFYPREAKVQWKVDNALQSGNSQESVTEQDSKDSTYSLSSTLTLSKADYEKHKVYACEVTHQGLSSPVTKSFNRGEC
As for B4, the “ADCC activity” value in assay [1] is reported as “concentration-dependent ADCC activity against the 293T-lacZ cells expressing human LAG-3, almost comparable to the human chimeric anti-LAG-3 antibody cLA212”. In assay [2], the “binding activity” value is “concentration-dependent binding activity to the 293T-lacZ cells expressing human LAG-3, comparable to the human chimeric anti-LAG-3 antibody cLA212”.
